Source: PubChem BioAssay AID1508624 (National Center for Advancing Translational Sciences (NCATS), 2021)
Among all 48,000 compounds or so, about 120 (0.25%) were called active. Inconclusive results (about 4%) are left out. The call rests on the fitted dose curve; in most records, active means well fitted activation curve with a large enough effect; inconclusive means small, poorly fitted or top-dose-only effect, or another doubt; inactive means no such curve, though single readings can be large or run the other way. The list shows a part of the results.

Experiment: Primary qHTS for Identification of Small Molecule Activators of Huntingtin-Antisense Promoter Activity; further: nearly all actives have a fitted effect of over 55% in size
Conditions: HEK293 HTT-AS promoter firefly luciferase reporter, 24 h; series mostly up to 57.5 µM; activity change, positive = activation: at the top concentration
Method in brief: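 Quantitative HTS used concentration series of up to 57.5 uM final on HEK293 luciferase reporter cells, 24 h at 37 degrees C. Readout was Dual-Glo firefly luminescence.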

Activity change, positive = activation, inactive:
COc1ccc(OC)c(CNC(=O)c2nn(C)c3c2CS(=O)(=O)c2ccccc2-3)c1 -7.07%, CN(C)C(=O)c1ccc2c(c1)N(CC(=O)NCc1ccccc1Cl)C(=O)C1CCCCN21 (centres undefined) -2.69%, COc1ccc(N2CCN(C(=O)CN3C(=O)COc4ccc(S(=O)(=O)N5CCC(C)CC5)cc43)CC2)cc1 -21.6%, COc1ccc(N2CC(NC(=O)C3CCCCC3)CC2=O)cc1OC (centres undefined) -0.711%, O=C(c1cnc2c(c1)COc1ccc(Cl)cc1-2)c1ccccc1O -15.3%, CCOc1ccc(NC(=O)CCCOc2cc(=O)n(C)c3ccccc23)cc1 -4.69%, Clc1ccccc1CSc1nnc(C2CCNCC2)o1 -2.75%, COc1ccc(NC(=O)c2oc3ccccc3c2NC(=O)Cc2coc3ccc(C)cc23)cc1 -1.2%, CCOc1cc(CNC(=O)c2ccc3nc(C(C)C)oc3c2)cc(OCC)c1OCC -11%, CCCCN(CC)C(=O)c1nn(-c2ccc(OC)cc2)c(=O)c2c1c1ccccc1n2C -4.68%, O=C(Cn1c(=O)n(-c2ccccc2)c(=O)c2ccc(C(=O)NCc3ccc4c(c3)OCO4)cc21)Nc1ccc(Br)cc1 -33.7%, Cc1ccc(C)c(N2CCN(C(=O)c3cc4c(=O)oc5ccccc5c4s3)CC2)c1 -6.26%, CCS(=O)(=O)c1oc(-c2ccc(F)cc2)nc1S(=O)(=O)c1ccccc1 -94%, O=C(c1ccc(Nc2nccc(-c3cc4ccccc4s3)n2)cc1)N1CCC(N2CCCC2)CC1 -37%, O=C(CSc1nc2ncccc2o1)Nc1cccc(C(F)(F)F)c1 3.61%, Cc1nc(SCC(=O)Nc2nsc(-c3ccc(C(C)(C)C)cc3)n2)c2c3c(sc2n1)CCCC3 -29.2%, COc1ccc(N2CCN(S(=O)(=O)CCNC(=O)Cc3ccc(OC)c(OC)c3)CC2)cc1 -5.49%, O=C(CN1C(=O)C2(SCC(=O)N2c2cccc(Cl)c2)c2ccccc21)NCc1ccccc1 (centres undefined) -16.1%, COc1ccc(-c2cn3nc(N4CCC(C(=O)Nc5cc(Cl)ccc5C)CC4)sc3n2)cc1 15.5%, CC(C)(C)c1ccc(OCC(=O)NCC2(N3CCOCC3)CCCCC2)cc1 -45.2%, COc1ccccc1-c1cc2nc(C)c(CCC(=O)NCCc3cccc(C)c3)c(C)n2n1 -59.9%, O=C(CCCCCn1c(=O)c2sccc2n(CC(=O)Nc2cc(C(F)(F)F)ccc2Cl)c1=O)NCc1ccccc1Cl -22.9%, CCc1cccc(-n2c(=O)c3cccnc3n2CC(=O)NCc2ccc(C)cc2)c1 -6.87%, Cc1ccc(NC(=O)Cn2cnc3onc(-c4ccc(F)cc4)c3c2=O)c(Cl)c1 -17.3%, CC(=O)Nc1ccc(Nc2ncnc3c2cnn3C)cc1 25.9%, CCOc1ccccc1CNC(=O)c1oc2c(c1C)-c1[nH]ncc1CC2 0.667%, CC1CCN(c2ncnc3c2c(-c2ccccc2)cn3-c2ccc(Br)cc2)CC1 -5%, CCCN(CCC)C(=O)Cn1c(=O)n(CCCCCC(=O)NCc2ccc3c(c2)OCO3)c(=O)c2sccc21 -9.74%, C[C@@H](NC(=O)c1ncnc(N)c1Cl)c1ncc(C(=O)Nc2cc(C(F)(F)F)c(Cl)cn2)s1 -16.6%, Cc1ccc(C)n1-c1nnc(N2CCCC(C(=O)Nc3ccccc3Br)C2)s1 (centres undefined) -2.05%, CCOC(=O)c1c(NC(=O)c2cc(OC)c(OC)c(OC)c2)sc2c1CCCC2 4.62%, COc1ccccc1-c1noc(CCCC(=O)Nc2cccc(C(F)(F)F)c2)n1 -20.4%, CN(C)C(=S)SC(=S)N(C)C -59.8%, CC(C)N(C(=O)Cn1cc(S(=O)(=O)Cc2ccc(Br)cc2)c2ccccc21)C(C)C -18.7%, O=C(c1ccc(F)cc1)N1CCC(c2nc3ccccc3s2)CC1 -12.2% [at 11.5 µM, percent change from vehicle, -100% = no light], Cc1ccc(CNC(=O)c2cc(-c3ccc(C)cc3)nc3n[nH]c(-c4cccc([N+](=O)[O-])c4)c23)cc1 1.36%, CC1CCN(S(=O)(=O)c2ccc3c(c2)N(CC(=O)NCCCN2CCCCC2)C(=O)CS3)CC1 -1.6%, CCOc1ccc(S(=O)(=O)NCCc2c(C)[nH]c3c(Cl)cccc23)cc1C -17.1%, Cc1c(C(=O)Nc2ccc(F)c(C(F)(F)F)c2)sc2nc(-c3ccccc3)cn12 -34.5%, Cc1ccc(Cl)cc1N1CCN(C(=O)CSc2cc(=O)n(C)c3ccccc23)CC1 -45.8%, Cc1cccc(CC(=O)Nc2ccc3nc(N4CCC(C)CC4)cc(C)c3c2)c1 -13.4%, CC1=C(C(=O)Nc2cc(Cl)ccc2C)C(c2sccc2C)n2ncnc2N1 (centres undefined) -8.41%, Cc1cc(C)c(NC(=O)Cn2c(=O)n(CCC(=O)NCc3ccccc3Cl)c(=O)c3sccc32)c(C)c1 3.35%, O=C(Nc1nc2ccc(F)cc2s1)c1nc(S(=O)(=O)Cc2ccccc2F)ncc1Cl -43.8%, COc1ccc(C(=O)Nc2ccc3nc(SCC(=O)N(C)c4ccccc4)sc3c2)cc1 -47.8%, CSc1ncc(C(=O)NCc2ccc(C)cc2)c(C)n1 -15.1%, CC(C)(C)c1ccc2c(c1)N(CC(=O)NCCCN1CCN(c3ccccc3F)CC1)C(=O)CO2 -26.7%, CC1(C)CCC(C)(C)c2cc(NC(=O)c3ccc(C(=O)O)cc3)ccc21, CCCCn1c(=O)nc2n(-c3ccc(Br)cc3)c3ccccc3cc-2c1=O -7.17%, CC1CCCN(CCCNC(=O)Cn2ncc3c([nH]c4ccccc43)c2=O)C1 (centres undefined) -11.2%, CCOC(=O)Cc1ccc(NC(=O)N(Cc2ccc(CC)cc2)Cc2cn[nH]c2-c2ccc(OC)cc2)cc1 -29%, COc1cccc(C(=O)Nc2nc(-c3ccc(Br)cc3)ns2)c1 -38.1%, Cc1nc2ccc(S(=O)(=O)NCC(=O)Nc3ccc(F)cc3F)cc2s1 -9.79%, Cc1ccc(S(=O)(=O)N2CCN(Cc3nc4ccc(C)cc4o3)CC2)c(C)c1 -27.5%, N[C@@H](Cc1cc(I)c(Oc2cc(I)c(O)c(I)c2)c(I)c1)C(=O)O, CCc1ccc(OCCn2c(C3CC(=O)N(Cc4ccc(F)cc4)C3)nc3ccccc32)cc1 (centres undefined) -49.4%, CC(C)(C)C(=O)Nc1ccccc1C(=O)OCc1cc(=O)n2ccsc2n1 7.66%, Cc1ccc(-n2c(SCC(=O)N3CCCc4ccccc43)nc3c([nH]c4ccccc43)c2=O)cc1 9.74%, CCOC(=O)c1c(C)[nH]c(C)c1S(=O)(=O)N(C)CC(=O)Nc1ccc(C)cc1Br -2.46%, COCCCNC(=O)CSC1=Nc2ccccc2C2=NC(CCC(=O)NCc3ccc(OC)cc3)C(=O)N12 (centres undefined) 0%, Cc1oc(-c2ccc(Cl)cc2)nc1CN1CCCC(C(=O)NCc2ccccc2)C1 (centres undefined) -39.6%, Cc1ccc(-n2c(COCC(=O)O)nc3cccnc32)cc1 -10%, Cc1ccc(Cl)cc1N1CCN(C(=O)c2cc3c(=O)oc4ccccc4c3s2)CC1 -20.9%, CCN1CCN(C(c2ccccc2Cl)c2c(O)cc(C)n(CCOC)c2=O)CC1 (centres undefined) -22.8%, CCCNC(=O)C1CCC(Cn2c(=O)c3sccc3n(CC(=O)NCc3cccc(OC)c3OC)c2=O)CC1 (centres undefined) -21.2%, Cc1cc(C)c2c(NC(=O)c3ccccc3)c(C(=O)Nc3ccc(F)cc3)sc2n1 -2.37%, Cc1ccc(C)c(N2CCN(CCCNC(=O)c3ccc4nc(CCc5ccccc5)oc4c3)CC2)c1 -0.506%, COc1cccc(N2CC(NC(=O)c3cc(Cl)ccc3OC)CC2=O)c1 (centres undefined) -16.9%, COc1ccc(OC)c(NS(=O)(=O)c2ccc(N3CCCCS3(=O)=O)cc2)c1 -7.92%, Cc1ccc(C(=O)N/C(=C\c2ccc(Cl)cc2)C(=O)NC2CCCCC2)cc1 -16.7%, O=C(O)C(O)Cc1ccc(O)c(O)c1 (centres undefined) -7.17%, CC(=O)c1cccc(NC(=O)CN(c2cc(C)cc(C)c2)S(=O)(=O)c2c(C)noc2C)c1 -33.2%, N#Cc1c(C(F)(F)F)cc(-c2cccs2)nc1SCC(=O)Nc1cccc(Cl)c1 -15.3%, Cc1cc(-n2ccnc(NCCc3ccc(S(N)(=O)=O)cc3)c2=O)ccc1Br -27.3%, COc1ccc(-c2onc(C)c2C)cc1S(=O)(=O)N(C)Cc1ccccc1 -51.3%, COc1ccc(NC(=O)c2ccco2)cc1NC(=O)c1cc(OC)c(OC)c(OC)c1 1.94%, Cc1ccc(-c2cn3ccc(C)cc3n2)cc1 -18.4%, CC(C)CCn1c(/C=C/c2ccccc2)nc2ccccc21 1.2%, Cc1cc(C)cc(NC(=O)CSc2nc3nccnc3c(=O)n2CCc2c[nH]c3ccccc23)c1 -30.1%, CCOC(=O)Cn1c(=O)n(C2CCCCC2)c2nc(-c3c(F)cccc3Cl)nc(C(N)=O)c21 -42.3%, Cc1cccc(NC(=O)Cn2c(=O)n(CCCCCC(=O)NCc3ccc4c(c3)OCO4)c(=O)c3sccc32)c1 -17.6%, COC(=O)c1scc(-c2ccc(C)cc2)c1S(=O)(=O)Nc1cc(C)ccc1OC -27.8%, Cc1ccc(NC(=O)c2cnc3sc(N4CCOCC4)nn3c2=O)cc1N(C)C -19.2%, COc1ccc(Nc2nc(C)nc(N)c2S(=O)(=O)c2ccccc2)cc1 -18.9%, COc1ccccc1C(=O)Nc1sc(Nc2ccccc2)nc1C(N)=O -28.3%, O=C(c1ccc2c(c1)N(Cc1ccccc1)C(=O)c1ccccc1S2(=O)=O)N1CCN(Cc2ccccc2)CC1 -33.2%, CC(C)(C)NC(=O)c1oc2ccccc2c1NC(=O)c1ccccc1F 3.97%, Cc1ccc(S(=O)(=O)Nc2ccc3nc(-c4ccc(F)cc4)oc3c2)cc1 -19.6%, CCC(C)NC(=O)CCC(=O)N1Cc2ccccc2Oc2ncccc21 (centres undefined) -2.57%, CC1=C(C(=O)N2CCN(c3ccccc3)CC2)C2(CCCCC2)OC1=O -5.17%, COc1cc(NC(=O)Cn2c(=O)ccc3cc(S(=O)(=O)N4CCCC4)ccc32)cc(OC)c1 -37.9%, Cc1ccc(CNC(=O)c2c(C)oc3ncnc(N4CCOCC4)c23)cc1 -24.3%, Cc1ccc(-n2nc(C)c(C(=O)O)c2-n2cccc2)cc1 -4.26%, COc1ccc(/C=C\c2onc(C)c2S(=O)(=O)N2CCC(C(=O)Nc3cccc(OC)c3)CC2)cc1 -41.8%
